Assay results from ChEMBL document CHEMBL1201862, “PubChem BioAssay data set” (2004).
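How tested: cells in 96-well plates exposed to compound for 48 hours at five concentrations. GI50 marks 50% less growth.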 Active and inactive are the calls of the source. Cut-off read from the data, not from the text of the source: active = GI50 up to about 1.1 µM and inactive = higher.

test system: NCI-H322M; assay: DTP human tumour cell line panel, 48 h

| SMILES | GI50 |
| --- | --- |
| C=CCSC1=N/C(=C\c2cccs2)C(=O)N1CC=C | inactive: 48.9 µM |
| CCCCOCCOC1=C(Cl)C(=O)c2c(O)ccc(O)c2C1=O | inactive: 1.77 µM |
| O=C1OCCC1C(O)C1c2ccccc2-c2ccccc21 (stereo unspecified) | inactive: > 100 µM |
| CC(C)Cn1cnc2c(SCc3ccccn3)nc(N)nc21 | inactive: > 100 µM |
| O=C1NC2c3c(I)sc(I)c3C(=O)C2O1 (stereo unspecified) | inactive: 16.3 µM |
| O=c1[nH]nc(-c2ccccc2)c2[nH]c(-c3ccccc3)cc12 | inactive: > 100 µM |
| Cc1cc2c(C)cc(=O)[nH]c2cc1N | inactive: > 100 µM |
| CC(=O)O[C@@H]1[C@H]2[C@@H](OC(=O)c3ccccc3)[C@@H](C)C[C@]2(O)[C@H](OC(C)=O)[C@@]2(C)[C@@H]3CC(C)(C)C(=O)[C@]3(OC(C)=O)C[C@@]12C | inactive: > 25 µM |
| Oc1ccc(/C=C\c2nnc(/C=C\c3ccc(O)c(O)c3)s2)cc1O | inactive: 18.3 µM |
| CC(=O)Oc1cc(C)c2c(c1OC(C)=O)CC1(O2)[C@@H](C)CCC2[C@@]3(C)CC[C@H](OC(C)=O)C(C)(C)C3CC[C@]21C (stereo partly specified) | inactive: 22.1 µM |
| CC1(CC(=O)OC(C#C[Si](C)(C)C)Cc2ccccc2)OCCO1 (stereo unspecified) | inactive: > 100 µM |
| CC(=O)Nc1ccc(C2=N/C(=C\c3ccc(Cl)cc3)C(=O)O2)cc1 | inactive: 25.8 µM |
| NC(=O)C(c1ccccc1)N1OC2C(=O)N(Cc3ccccc3)C(=O)C2C1c1cccc(Oc2ccc(Cl)cc2)c1 (stereo unspecified) | inactive: 41.3 µM |
| c1ccc2c(c1)ccc1nc3ccccn3c12 | inactive: > 100 µM |
| COc1c(Cl)cc(NC(=S)C#N)cc1Cl | inactive: 24 µM |
| COC(=O)/C=C/c1ccc2c(c1)CC1(C2)Cc2cc3c(cc2C1=O)CCC3 (stereo unspecified) | inactive: > 100 µM |
| COc1ccc(N2C(=O)CC(=O)N(C(=O)CCCCCCCCC(=O)N3C(=O)CC(=O)N(c4ccc(OC)cc4)C3=S)C2=S)cc1 | inactive: > 100 µM |
| COc1cccc(CC(=O)N2CCN(CCCc3ccccc3)CC2)c1 | inactive: > 100 µM |
| CC(C)(C)OC(=O)NCCNC(=O)CN(CC(=O)O)C1CCCCC1N(CC(=O)O)CC(=O)O (stereo unspecified) | inactive: > 100 µM |
| COc1ccc(-c2c(-c3ccccc3)c(C)nc3nc(SC)nc(SC)c23)cc1OC | inactive: 17.5 µM |
| Cc1ccc(-c2cc(=O)c3cc(C)c(C)c(C(=O)O)c3o2)cc1C | inactive: > 100 µM |
| Cc1ccc(/C=C2\CCCC(CN(C)C)C2=O)cc1 (stereo unspecified) | inactive: 15.1 µM |
| CC1(C)OCC2OC(n3cnc4c(N)nc(Cl)nc43)C(OS(C)(=O)=O)C2O1 (stereo unspecified) | inactive: > 100 µM |

| SMILES | GI50 |
| --- | --- |
| Cn1ccnc1Oc1ccc(Cl)cc1 | inactive: 17.3 µM |
| CCOC(=O)Nc1cc2nnc(-c3ccccc3)nc2c(N)n1 | inactive: 20.4 µM |
| O=C(NC1C2CC3CC(C2)CC1C3)/C(Cl)=C1/Sc2ccccc2NC1=O (stereo unspecified) | inactive: > 100 µM |
| COC(=O)C1=C(C(=O)OC)C2CCC1CC2=O (stereo unspecified) | inactive: > 100 µM |
| OCC(O)C(O)C(O)c1nn(-c2ccc(F)cc2)c2nc3cc(Cl)c(Cl)cc3nc12 (stereo unspecified) | inactive: 30.7 µM |
| C=CC1CN(C(=O)OCC)N(C(=O)OCC)C1CCc1ccccc1 (stereo unspecified) | inactive: > 100 µM |
| O=C(/C=C\c1ccccc1)N1CCc2ccccc2C1 | inactive: > 100 µM |
| COC(=O)[C@H](Cc1ccccc1)NC(=O)N(CCC#N)CCN(C(=O)N[C@@H](Cc1ccccc1)C(=O)OC)c1ccccc1 | inactive: 20.5 µM |
| O=C(CN1CCCCC1)Nc1ccc2c(c1)C1Oc3ccccc3CC1CO2 (stereo unspecified) | inactive: 51.8 µM |
| NCC(O)CN.Oc1c(Cl)c(Cl)c(Cl)c(Cl)c1Cl | inactive: 19.1 µM |
| O=C1Nc2ccccc2/C1=N/Nc1c(F)c(F)c(F)c(F)c1F | inactive: > 100 µM |
| N=C(N)Nc1nc2cc(N)ccc2o1 | inactive: > 100 µM |
| Oc1ccc(CNCc2ccccc2)c2cccnc12 | inactive: 1.31 µM |
| CC1CC(C[N+](=O)[O-])CC2(C1)OCCO2 (stereo unspecified) | inactive: > 100 µM |
| CCOC1(OCC)C2C=CC1C(COS(=O)(=O)c1ccc(C)cc1)C2COS(=O)(=O)c1ccc(C)cc1 (stereo unspecified) | inactive: 55.2 µM |
| Cc1ccc(C(=O)CCl)o1 | inactive: > 10 µM |
| O=C1c2ccc3ccccc3c2CCC1N1CCCCC1 (stereo unspecified) | inactive: 15.5 µM |
| CCCC[C@H]1C(=O)O[C@H](C)[C@H](NC(=O)c2cccc(NC=O)c2OC)C(=O)O[C@@H](C)[C@@H]1OC(=O)C(C)CC.CCCC[C@H]1C(=O)O[C@H](C)[C@H](NC(=O)c2cccc(NC=O)c2OC)C(=O)O[C@@H](C)[C@@H]1OC(=O)CC(C)C (stereo partly specified) | inactive: 16.6 µM |
| COC[C@@H](/N=C/c1ccc([N+](=O)[O-])cc1)C(C)C | inactive: > 100 µM |
| Cc1nc2ccccc2c(=O)n1NC(=O)c1ccc([N+](=O)[O-])cc1 | inactive: > 100 µM |
| COc1ccc(C(c2c(O)c3ccccc3n(C)c2=O)c2c(O)c3ccccc3n(C)c2=O)cc1 | inactive: 86.5 µM |
| NC(=O)c1ncn(C2CCC(CP(=O)(O)O)C2)c1N (stereo unspecified) | inactive: > 100 µM |
| CC(=O)O[C@@H]1CC[C@@]2(C)C(=O)C34C[C@@]5(C)C([C@@H](C)CCCC(C)C)CCC5(C)[C@](O)(O3)C(=O)[C@H]4C2C1(C)C (stereo partly specified) | inactive: 19.1 µM |
